# Reference: the antibiotic and cytotoxicity screens of Wong et al. (2023)
# This is one part of the list.
# Test system: S. aureus RN4220
# Assay: growth inhibition call (relative growth <= 0.2)
# Settings: 50 µM
row,SMILES,growth inhibition call
1,C[C@@H]1CN([C@@H](C)CO)C(=O)c2cc(NC(=O)Nc3ccc4c(c3)OCO4)ccc2O[C@H]1CN(C)S(=O)(=O)c1cn(C)cn1,inactive
2,C[C@H]1CCCCO[C@@H](CN(C)C(=O)Nc2ccc(C(F)(F)F)cc2)[C@@H](C)CN([C@@H](C)CO)C(=O)c2cc(NC(=O)CCC(F)(F)F)ccc2O1,inactive
3,CCOC(=O)[C@H]1CNC(=S)N[C@@]1(C)O,inactive
4,COc1ccc(NC(=O)Nc2ccc3c(c2)C(=O)N([C@@H](C)CO)C[C@H](C)[C@H](CN(C)C(=O)Nc2ccc(OC)cc2)OCCCC[C@@H](C)O3)cc1,inactive
5,COc1ccc(S(=O)(=O)Nc2ccc3c(c2)CC(=O)N([C@H](C)CO)C[C@H](C)[C@H](CN(C)Cc2ccc(Oc4ccccc4)cc2)O3)cc1,inactive
6,C[C@@H]1CCCCO[C@@H](CN(C)Cc2ccc(C(=O)O)cc2)[C@H](C)CN([C@H](C)CO)C(=O)c2cc(NC(=O)NC3CCCCC3)ccc2O1,inactive
7,Cc1noc(C)c1NC(=O)Nc1ccc2c(c1)C(=O)N([C@@H](C)CO)C[C@@H](C)[C@@H](CN(C)Cc1ccc(C(F)(F)F)cc1)OCCCC[C@H](C)O2,inactive
8,COC(=O)[C@@H](Cc1ccc(-n2cc(COc3ccccc3/C=C(C)/C=C/C(=O)NO)nn2)cc1)N1CC2=C[C@H](C3CC3)n3c(=O)n(C)c(=O)n3[C@@H]2[C@H]1[C@H](O)Cc1ccccc1,inactive
9,N[C@H](C(=O)O)[C@@H]1CC(Cl)=NO1,inactive
10,C[C@H]1CN([C@@H](C)CO)C(=O)c2cccc(NC(=O)CCCCCC(=O)Nc3ccccc3N)c2O[C@H]1CN(C)C(=O)Nc1ccccc1,inactive
11,CC1(C)SC2C(NC(=O)C(NC(=O)N3CCNC3=O)c3ccccc3)C(=O)N2C1C(=O)[O-].[Na+] (centres undefined),active
12,CC(C)C[C@](O)(C(=O)OCc1ccc(O[C@@H]2O[C@H](CO)[C@@H](O)[C@H](O)[C@H]2O)cc1)[C@@H](O)C(=O)OCc1ccc(O[C@@H]2O[C@H](CO)[C@@H](O)[C@H](O)[C@H]2O)cc1,inactive
13,O=C(C[C@H]1CC[C@H]2[C@@H](COC[C@@H](O)CN2C(=O)Nc2ccc3c(c2)OCO3)O1)N1CCN(c2ccccc2)CC1,inactive
14,C[C@H](CO)N1C[C@H](C)[C@@H](CN(C)Cc2ccc(Cl)c(Cl)c2)Oc2c(NC(=O)Nc3cccc4ccccc34)cccc2C1=O,inactive
15,COc1ccc(NC(=O)Nc2ccc3c(c2)[C@H]2C[C@@H](CC(=O)NCC(F)(F)F)O[C@@H](CO)[C@H]2O3)cc1,inactive
16,COc1cc2c3cc1Oc1cc(ccc1O)O[C@H]1c4c(cc(OC)c(O)c4Oc4ccc(cc4)C[C@@H]3N(C)CC2)CCN1C,inactive
17,C=CCn1c(=O)c2c(OC)ccnc2n(C)c1=O,inactive
18,C[C@H](CO)N1C[C@H](C)[C@H](CN(C)Cc2ccc(C(=O)Nc3ccccc3N)cc2)OCc2cn(nn2)CCCC1=O,inactive
19,COCC(=O)N(C)C[C@@H]1Oc2cc(C#CCN(C)C)ccc2S(=O)(=O)N([C@@H](C)CO)C[C@H]1C,inactive
20,C[C@H](CO)N1C[C@H](C)[C@@H](CN(C)Cc2ccc3c(c2)OCCN3C)OCc2ccccc2-c2c(n(C)c3ccccc23)C1=O,inactive
21,COc1ccc(C#Cc2cnc3c(c2)C(=O)N([C@H](C)CO)C[C@H](C)[C@H](CN(C)S(=O)(=O)c2ccc(F)cc2)O3)cc1OC,inactive
22,C[C@H](CO)N1C[C@H](C)[C@@H](CN(C)Cc2ccc(Cl)c(Cl)c2)Oc2ccc(NC(=O)Nc3ccccc3)cc2CC1=O,inactive
23,Cc1noc(C)c1NC(=O)N[C@@H]1C=C[C@H](CC(=O)NCCCN(C)C)O[C@H]1CO,inactive
24,O=C(Nc1cccc2ccccc12)c1ccc(C(F)(F)F)cc1,inactive
25,C[C@H](CO)N1C[C@H](C)[C@@H](CN(C)C(=O)Nc2cccc(C(F)(F)F)c2)OCc2cnnn2CCCC1=O,inactive
26,COc1cccc(S(=O)(=O)Nc2ccc3c(c2)[C@H]2C[C@H](CC(=O)NCc4cccc(F)c4)O[C@@H](CO)[C@H]2O3)c1,inactive
27,Cc1cc(C)nc(NS(=O)(=O)c2ccc(N)cc2)n1,inactive
28,Cc1cc(O)cc(O)c1C(=O)O,inactive
29,C[C@@H]1CCCCO[C@@H](CN(C)C(=O)Nc2cccc3ccccc23)[C@@H](C)CN([C@@H](C)CO)C(=O)c2cc(NC(=O)C3CCCCC3)ccc2O1,inactive
